{"source": "PubChem BioAssay AID504339", "about": "(National Center for Advancing Translational Sciences (NCATS), 2011)", "note": "Values joined by “and” are separate entries in the source; they are usually repeats but may differ in a detail not shown here. Identical values can stand only once. The campaign covered roughly 390,000 compounds. About 17,000 (4.4%) were called active. Inconclusive results, whose numbers are uncertain, are shown with a selection of clear calls. Calls follow the shape of the dose curve; as a rule, active = well fitted inhibition curve with a large enough effect; inconclusive = small, poorly fitted or top-dose-only effect; inactive = no such curve, though single readings can be large or run the other way. Potencies beside an inconclusive call are fits to weak or partial responses and may not hold up. Potency is read from the fitted curve at half-maximal effect; tags tell the direction and shape of the fitted curve."}
{"target": "Lysine-specific demethylase 4A (Homo sapiens) (UniProt O75164)", "sequence (O75164 whole entry, looked up, the tested form may be a part)": "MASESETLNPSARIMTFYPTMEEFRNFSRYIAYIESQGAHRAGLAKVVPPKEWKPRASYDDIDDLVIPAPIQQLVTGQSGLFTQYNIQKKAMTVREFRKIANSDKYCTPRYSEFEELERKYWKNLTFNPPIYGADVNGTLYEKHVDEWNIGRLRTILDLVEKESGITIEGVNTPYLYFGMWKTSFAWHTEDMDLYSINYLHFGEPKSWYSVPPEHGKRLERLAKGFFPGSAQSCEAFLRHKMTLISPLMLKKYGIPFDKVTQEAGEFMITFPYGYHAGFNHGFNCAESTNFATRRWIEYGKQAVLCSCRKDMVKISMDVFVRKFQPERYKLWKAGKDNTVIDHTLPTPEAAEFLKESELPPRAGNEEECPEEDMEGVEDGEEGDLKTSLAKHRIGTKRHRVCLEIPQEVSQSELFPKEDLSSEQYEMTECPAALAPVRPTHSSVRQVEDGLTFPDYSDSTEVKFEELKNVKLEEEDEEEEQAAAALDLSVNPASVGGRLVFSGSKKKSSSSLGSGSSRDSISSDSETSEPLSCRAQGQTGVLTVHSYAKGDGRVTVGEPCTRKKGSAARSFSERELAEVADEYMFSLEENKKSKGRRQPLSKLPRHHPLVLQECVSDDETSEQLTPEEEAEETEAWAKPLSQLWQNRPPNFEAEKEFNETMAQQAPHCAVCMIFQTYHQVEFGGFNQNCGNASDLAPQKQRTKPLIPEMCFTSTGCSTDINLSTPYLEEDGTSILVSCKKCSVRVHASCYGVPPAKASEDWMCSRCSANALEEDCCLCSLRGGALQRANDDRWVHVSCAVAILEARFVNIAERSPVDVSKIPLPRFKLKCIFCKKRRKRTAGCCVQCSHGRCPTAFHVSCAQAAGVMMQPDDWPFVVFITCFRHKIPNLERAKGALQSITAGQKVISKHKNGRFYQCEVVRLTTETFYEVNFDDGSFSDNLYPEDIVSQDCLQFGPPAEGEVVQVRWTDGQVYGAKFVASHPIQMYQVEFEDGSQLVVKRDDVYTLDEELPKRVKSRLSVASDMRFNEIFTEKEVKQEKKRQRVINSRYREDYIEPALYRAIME", "assay": "qHTS Assay for Inhibitors of JMJD2A-Tudor Domain; also: nearly all actives have a fitted effect of over 50% in size", "conditions": "AlphaScreen JMJD2A-Tudor / H3K4me3 peptide binding; series mostly up to 114 µM"}
{"smiles": "CCOC(=O)C(=NC(C)CC)NNc1ccc(Br)cc1", "note": "(configuration not stated)", "Potency": "inconclusive: 56.2 µM [inhibitor, partial curve]"}
{"smiles": "C/C(=N\\Nc1nc(C(C)(C)C)cs1)c1ccc(O)cc1", "Potency": "inconclusive: 56.2 µM [inhibitor, partial curve, poor fit]"}
{"smiles": "CCOC(=O)c1cc(-c2ccc(F)cc2)n(CCC(=O)NCCc2ccc(C)cc2)c1C", "Potency": "inconclusive: 50.1 µM [inhibitor, partial curve]"}
{"smiles": "Cc1cc(C)nc(NN2C(=O)/C(=C/c3ccc(O)cc3)SC2=S)n1", "Potency": "inconclusive: 44.7 µM [inhibitor, partial curve]"}
{"smiles": "CCN(c1ccc(NC(=O)COC(=O)C(C)N=C2NS(=O)(=O)c3ccccc32)cc1)C(C)C", "note": "(configuration not stated)", "Potency": "inconclusive: 50.1 µM [inhibitor, partial curve]"}
{"smiles": "COc1ccc(NC(=O)C2CCCN2S(=O)(=O)c2cccs2)c([N+](=O)[O-])c1", "note": "(configuration not stated)", "Potency": "inconclusive: 44.7 µM [inhibitor, partial curve]"}
{"smiles": "O=C(N/N=C1/CCSC1)c1cccc([N+](=O)[O-])c1", "Potency": "inconclusive: 100 µM [inhibitor, single point]"}
{"smiles": "O=C(N/N=C/c1c(O)ccc2ccccc12)c1ccc[n+](CCO)c1", "Potency": "active: 28.2 µM"}
{"smiles": "Cc1ccc(C)c(OCCn2ccnc2)c1", "Potency": "inconclusive: 50.1 µM [inhibitor, partial curve]"}
{"smiles": "COc1cccc(C#Cc2c(C=O)n(C)c3ccccc23)c1", "Potency": "inactive"}
{"smiles": "COC(=O)c1cc(=O)n(Cc2ccc3c(c2)OCO3)c(=Nc2ccc(F)cc2)s1", "Potency": "inconclusive: 14.1 µM [inhibitor, full curve]"}
{"smiles": "COc1ccc(OCC(O)CN2CCN(c3ccc(OC)cc3)CC2)cc1", "note": "(configuration not stated)", "Potency": "inconclusive: 56.2 µM [inhibitor, partial curve]"}
{"smiles": "Cc1nn(C(C)C(=O)NCCCN2CCCCCC2)c(=O)c2c1sc1ccccc12", "note": "(configuration not stated)", "Potency": "active: 50.1 µM"}
{"smiles": "COC(=O)c1cc(C(=O)N2CCN(c3cccc(Cl)c3)CC2)cc([N+](=O)[O-])c1", "Potency": "inconclusive: 63.1 µM [inhibitor, partial curve, poor fit]"}
{"smiles": "Cc1ccc(Nc2nnc(SCC(=O)Nc3ncc(S(=O)(=O)c4ccc([N+](=O)[O-])cc4)s3)s2)cc1", "Potency": "inactive"}
{"smiles": "CSc1c[n+]2c(n1C)CCC2", "Potency": "active: 31.6 µM"}
{"smiles": "COc1ccc(CNC(=S)Nc2ccc(F)c(Cl)c2)cc1OC", "Potency": "inactive"}
{"smiles": "CCN(C(=O)COC(=O)C(c1ccccc1)c1ccccc1)c1c(N)n(Cc2ccccc2)c(=O)[nH]c1=O", "Potency": "inactive"}
{"smiles": "COc1ccc(C2=Nn3c(nnc3-c3ccccc3F)SC2)cc1OC1CCCC1", "Potency": "inconclusive: 39.8 µM [inhibitor, full curve]"}
{"smiles": "Cc1nc(-c2ccc(F)cc2)c(CC(=O)N(C)CC(=O)Nc2ccc(Cl)c(C(F)(F)F)c2)s1", "Potency": "inconclusive: 2.24 µM [inhibitor, partial curve, poor fit]"}
{"smiles": "C=C(C)CN=c1scc(C)n1/N=C/c1ccco1", "Potency": "inconclusive: 56.2 µM [inhibitor, partial curve]"}
{"smiles": "CCO[C@@H]1OC(C(=O)N2CCN(Cc3ccccc3)CC2)=C[C@H](c2csc3ccccc23)[C@H]1CCCO", "Potency": "inconclusive: 79.4 µM [inhibitor, partial curve]"}
{"smiles": "CCCCn1c(O)c(/C=C/C=C/C=Nc2ccccc2)sc1=S", "Potency": "inconclusive: 3.16 µM [inhibitor, full curve, poor fit]"}
{"smiles": "COc1ccc([C@H]2CC(=O)C=C(c3cccc(C(F)(F)F)c3)C2)cc1", "Potency": "inconclusive: 39.8 µM [inhibitor, partial curve]"}
{"smiles": "COc1ccc(C(=O)NC(=S)Nc2ccc(N3CCN(C(C)=O)CC3)cc2)cc1[N+](=O)[O-]", "Potency": "inactive"}
{"smiles": "CCOC(=O)c1c(C)n(C)c2ccc(OCC(O)Cn3c(C)nc4ccccc43)cc12", "note": "(configuration not stated)", "Potency": "inconclusive: 15.8 µM [inhibitor, full curve, poor fit]"}
{"smiles": "CC(C(Sc1ccccc1N)c1ccccc1)[N+](=O)[O-]", "note": "(configuration not stated)", "Potency": "active: 20 µM"}
{"smiles": "CC(Sc1nnnn1C)C(=O)NC(=O)NC1CCCCC1", "note": "(configuration not stated)", "Potency": "inactive"}
{"smiles": "CSc1ccc(CN2CCC(Cc3ccccc3)CC2)cc1", "Potency": "active: 35.5 µM"}
{"smiles": "Cc1nc(-c2ccc(S(=O)(=O)NCc3ccc(N(C)C)cc3)cc2)co1", "Potency": "active: 50.1 µM"}
{"smiles": "Cc1cc(C)n2nc(SCC(=O)N3CCC(C(=O)O)CC3)nc2n1", "Potency": "inactive"}
{"smiles": "COc1cc(/C=C(\\C#N)C(=O)Nc2cccc(C(=O)O)c2)ccc1OCc1ccc(F)cc1", "Potency": "inactive"}
{"smiles": "O=C(Nc1ccc(O)cc1)c1cccc(Oc2ccc([N+](=O)[O-])cc2)c1", "Potency": "inconclusive: 39.8 µM [inhibitor, partial curve]"}
{"smiles": "Cc1cc(OC(=O)c2cccc([N+](=O)[O-])c2)c(C)cc1CN1CCOCC1", "Potency": "inconclusive: 56.2 µM [inhibitor, partial curve]"}
{"smiles": "Cc1ccc(-n2c([S-])c(C(=O)Nc3ccc(OC(F)F)cc3)[n+]3ccc(C(=O)NCCO)cc23)cc1C", "Potency": "inactive"}
{"smiles": "CCC(=O)Nc1ccc(C(=O)CSc2nnc(-c3ccc(O)cc3)n2CC2CCCO2)cc1", "note": "(configuration not stated)", "Potency": "inconclusive: 79.4 µM [inhibitor, partial curve]"}
{"smiles": "CCOC1(OCC)N=C(N)C2(C#N)C(c3cccc(OC)c3OC)C12C#N", "note": "(configuration not stated)", "Potency": "inconclusive: 56.2 µM [inhibitor, partial curve]"}
{"smiles": "Cc1nc2ccccc2c(=O)n1/N=C/c1c(O)ccc2oc3c(c12)CCCC3", "Potency": "inconclusive: 8.91 µM [inhibitor, full curve]"}
{"smiles": "CCc1ccc(NC(=O)Cn2c(=O)n(Cc3ccco3)c(=O)c3cccnc32)cc1", "Potency": "inactive"}
{"smiles": "CCOc1ccc(/C=C2\\SC(=S)N(NS(=O)(=O)c3ccccc3)C2=O)cc1OC", "Potency": "inconclusive: 50.1 µM [inhibitor, partial curve]"}
{"smiles": "Cc1cc(C)c2nc(N(Cc3cccnc3)C(=O)CCOc3ccccc3)sc2c1", "Potency": "inactive"}
{"smiles": "CC(C)[C@H](CN1CCC[C@H]1CN1C(N)=NC[C@@H]1Cc1ccccc1)N1C[C@@H](Cc2ccccc2)N(CCc2ccc(Cl)c(Cl)c2)C1=N", "Potency": "inconclusive: 56.2 µM [inhibitor, partial curve, poor fit]"}
{"smiles": "CCOC(=O)CN1C(=O)S/C(=C\\c2ccc3c(c2)OCO3)C1=O", "Potency": "inactive"}
{"smiles": "CC(=O)N1N=C2/C(=C/c3ccccc3)CCCC2C1c1ccccc1", "note": "(configuration not stated)", "Potency": "inconclusive: 22.4 µM [inhibitor, single point]"}
{"smiles": "CC1Cc2nc(SCC(=O)NCc3ccco3)n(Cc3ccccc3)c(=O)c2S1", "note": "(configuration not stated)", "Potency": "inconclusive: 89.1 µM [inhibitor, partial curve]"}
{"smiles": "CC(C)c1ccc(OCC(=O)N(Cc2ccc(N(C)C)cc2)C2CCS(=O)(=O)C2)cc1", "note": "(configuration not stated)", "Potency": "active: 44.7 µM"}
{"smiles": "COc1ccc(C2CC(=O)Oc3c(C(CCN4CCCC(C)C4)c4ccc(N(C)C)cc4)c(OC)cc(OC)c32)cc1", "note": "(configuration not stated)", "Potency": "active: 12.6 µM and active: 14.1 µM"}
{"smiles": "COC(=O)[C@]1(C)N[C@H](CN(C)C(=O)Nc2ccccc2)[C@@H]2C(=O)N(C)C(=O)[C@@H]21", "Potency": "inactive"}
{"smiles": "CCCOc1ccc(OCCOCCNCc2ccccc2)cc1", "Potency": "active: 17.8 µM"}
{"smiles": "C(#Cc1ccccc1)CN1CCN(c2ccccn2)CC1", "Potency": "inconclusive: 79.4 µM [inhibitor, single point] and inconclusive: 79.4 µM [inhibitor, partial curve]"}
{"smiles": "CN(CCc1ccccn1)S(=O)(=O)c1ccccc1F", "Potency": "inconclusive: 28.2 µM [inhibitor, partial curve]"}
{"smiles": "Cc1cc(C)cc(OCC(=O)OCC(=O)N(CC(C)C)c2c(N)n(Cc3ccccc3)c(=O)[nH]c2=O)c1", "Potency": "inactive"}
{"smiles": "NC(=S)N/N=C/c1c[nH]c2ccc(OCc3ccccc3)cc12", "Potency": "inconclusive: 50.1 µM [inhibitor, partial curve]"}
{"smiles": "CCOc1ccc(-c2c(C(=O)N/N=C/c3sccc3C)nnn2-c2nonc2N)cc1", "Potency": "inconclusive: 44.7 µM [inhibitor, partial curve, poor fit]"}
{"smiles": "NS(=O)(=O)c1ccc(O)c(N2C(=O)c3cccc4c(C(=O)O)ccc(c34)C2=O)c1", "Potency": "inactive"}
{"smiles": "Cc1ccc(Nc2cc(C)nc3c(C)ccc([N+](=O)[O-])c23)cc1", "Potency": "active: 35.5 µM"}
{"smiles": "COc1ccc(-c2csc(NCc3ccco3)n2)cc1", "Potency": "active: 79.4 µM"}
{"smiles": "CCc1ccccc1NC(=O)C1CCCN(c2ncnc3onc(C)c23)C1", "note": "(configuration not stated)", "Potency": "inactive"}
{"smiles": "C#CCOCCOCCOCCNc1nc(N2CCN(C(=O)CCCCCCCCCCNC(=O)[C@H](CCCCN)n3cc(CCO)nn3)CC2)nc(N2CCN(C(=O)CCCCCCCCCCNC(=O)[C@@H]([C@H](C)O)n3cc(C)nn3)CC2)n1", "Potency": "active: 79.4 µM"}
{"smiles": "O=C(COC(=O)c1ccc(S(=O)(=O)NCc2ccco2)cc1)NCc1ccccc1", "Potency": "inconclusive: 39.8 µM [inhibitor, partial curve, poor fit]"}
{"smiles": "CCc1nnc(NC(=O)CCN2C(=O)C3CCCCC3C2=O)s1", "note": "(configuration not stated)", "Potency": "inactive"}
{"smiles": "Cc1ccc(N/N=C/c2ccc(N3CCOCC3)cc2)cc1C", "Potency": "active: 39.8 µM"}
{"smiles": "COc1cccc(NC(=O)c2cccc(C(=O)Nc3cccc(OC)c3)n2)c1", "Potency": "inconclusive: 25.1 µM [inhibitor, partial curve, poor fit]"}
{"smiles": "O=C(O)CSc1cc(NS(=O)(=O)c2ccc(Cl)cc2)c2ccccc2c1O", "Potency": "active: 25.1 µM"}
{"smiles": "COc1ccc(CCNC(=O)CSc2nnc(CNC(=O)c3c(F)cccc3Cl)o2)cc1OC", "Potency": "inactive"}
{"smiles": "O=C1C2=C(NC(=S)NC2c2ccc(Cl)cc2)NC(c2ccc(Cl)cc2)N1c1ccc(Cl)cc1", "note": "(configuration not stated)", "Potency": "inconclusive: 70.8 µM [inhibitor, partial curve, poor fit]"}
{"smiles": "CC(=O)Oc1cc2oc(=O)cc(C)c2cc1OC(C)=O", "Potency": "inactive"}
